Data: US10364280B2, “Polypeptide” (AFFIBODY AB, priority 2015, dated 2019)

Experiment: Circular dichroism (CD) spectroscopy with variable temperature measurement
Format: physicochemical
Experimental: The Z variant Z15171-Cys (SEQ ID NO:5), was diluted to 0.5 mg/ml in 20 mM HEPES, 1 mM EDTA, pH 7.2. A CD spectrum at 250-195 nm was obtained at 20° C. In addition, a variable temperature measurement (VTM) was performed to determine the melting temperature (Tm). In the VTM, the absorbance was measured at 221 nm while the temperature was raised from 20 to 90° C., with a temperature slope of 5° C./min. A new CD spectrum was obtained at 20° C. after the heating procedure in order to study the refolding ability of the Z variants. The CD measurements were performed on a Jasco J-810 spectropolarimeter (Jasco Scandinavia AB) using a cell with an optical path length of 1 mm. The His-tagged Z variants Z13178 (SEQ ID NO:2) and Z13398 (SEQ ID NO:4) were analyzed by CD spectroscopy as described above, but with the exceptions that PBS was used as analysis buffer and the temperature was raised to 80° C. in the VTM.

B1: Z15171-Cys: Z15171 subcloned with a C-terminal cysteine, encoding sequence Z15171-VDC (SEQ ID NO:5) (protein)
chain: AEAKYAKERTVAVWEIVQLPNLTAWQKGAFINKLHDDPSQSSELLSEAKKLNDSQAPKVDC
modifications: Engineered PD-L1 binding polypeptide
- Tm (° C.) (CD at 221 nm, VTM, Z15171-Cys in HEPES/EDTA pH 7.2, 20 to 90° C., His-tagged Z13178, Z13398 in PBS, to 80° C.): 51 °C
- refolding after heating (CD spectra before and after VTM) (spectra at 20° C. before and after heating): Reversible folding
